Sequences with one replicate were seen in a single cluster, so their values are uncertain.
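Note: ATP exposure 15 min at 22 °C before imaging.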

The subject of this data set is ATP. Briefly: switch fluorescence ratio, 500 uM ATP over buffer (Cy3 cluster intensity, sum of 5 cycles each) (fold (ratio)); higher = stronger signal-on switching upon ATP binding; sequences stand for … in TCGTCGGCAGCGTCAGATGTGTATAAGAGACAGTTTTTTTTTTTTTTTTTTTTTTTTT…TC. Particulars: aptamer strand: ATP DNA aptamer (quencher-CACCTGGGGGAGTATTGCGGAGGAAGG + anchor), 100 nM annealed; ATP concentration: 500 uM; one replicate. An outline of the steps:
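Clusters carrying Cy3-labelled switching strands on a modified Illumina MiSeq flow-cell were annealed to 100 nM quencher-labelled ATP aptamer and imaged in selection buffer. They were imaged again after 15 min with 500 uM ATP at 22 °C, over five buffer/ATP cycles with NaOH stripping and re-annealing in between. For each cluster, the fluorescence ratio is the summed Cy3 intensity of the target cycles divided by that of the buffer cycles, averaged per switch-domain sequence. Clusters outside 100-1000 RFU were left out.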
Take TGAAAGCCGC: the switch fluorescence ratio stood at 1.02.

Regarding GGGTCCCGCG, the switch fluorescence ratio was determined as 1.03.

For GGGCTGCGAA, the switch fluorescence ratio amounted to 0.988.

On to ATTCAGATTG, for which the switch fluorescence ratio stood at 1.01.

As for TATCAAGTCG, the switch fluorescence ratio turned out to be 0.976.

On to GCTATCAGGT, for which the switch fluorescence ratio turned out to be 1.02.

Consider ATCCGCCGGG, for which the switch fluorescence ratio was determined as 1.1.

Regarding GGACTCGCAG, the switch fluorescence ratio amounted to 1.

As to TAGCGGGTGA, the switch fluorescence ratio was 1.06.

ACAGGTGAAG: the switch fluorescence ratio was 1.18.

For the sequence AATTCACGTA, the switch fluorescence ratio amounted to 1.23.

Consider ATCTCCCCGG, for which the switch fluorescence ratio was found to be 3.15.

With GCAAGAGGAA, the switch fluorescence ratio is 1.03.

In the case of GCTGCGGTCC, the switch fluorescence ratio is 1.05.

ACTAGAGCAT: the switch fluorescence ratio was 1.1.

Consider TCGCGGGCCT, for which the switch fluorescence ratio was 1.03.

Consider TCTAGTCAGT, for which the switch fluorescence ratio came out at 0.978.

Turning to ATTCTGACAA, the switch fluorescence ratio is 1.07.

Consider CGATTTTTAA, for which the switch fluorescence ratio amounted to 0.99.

On to GATCGAATTT, for which the switch fluorescence ratio is 0.978.

ATCTACGGTC: the switch fluorescence ratio worked out at 1.01.

Consider TTCAAACGGG, for which the switch fluorescence ratio was determined as 1.03.

TGATACTT: the switch fluorescence ratio was 0.989.

Consider TTCATAGTCA, for which the switch fluorescence ratio was 0.981.

As for TGCTGTAATC, the switch fluorescence ratio came out at 0.961.

In the case of ATCTAGGCCC, the switch fluorescence ratio was 1.02.

Take CAGAGTCTCG: the switch fluorescence ratio turned out to be 1.04.

Regarding AGGCTTAAAA, the switch fluorescence ratio worked out at 0.998.

As for CATAAGACGG, the switch fluorescence ratio was 0.989.

Turning to CGGAGAGACT, the switch fluorescence ratio turned out to be 1.01.

As for TGCCCGTGCT, the switch fluorescence ratio worked out at 1.07.

As to CGGCATGACT, the switch fluorescence ratio came to 1.06.

In the case of GAACATATAT, the switch fluorescence ratio stood at 1.12.

For the sequence ATCCCAAATC, the switch fluorescence ratio stood at 1.15.

Consider AGGAGTTCCG, for which the switch fluorescence ratio worked out at 1.09.

Consider GGCCTCGGGA, for which the switch fluorescence ratio amounted to 1.04.

Regarding TGGGACCGTG, the switch fluorescence ratio amounted to 0.929.

As to CGGCGGATGG, the switch fluorescence ratio stood at 1.04.

As for GTTGGGGT, the switch fluorescence ratio was 1.

Turning to CATGAACGTG, the switch fluorescence ratio was 0.996.

Take TGTATAAGGC: the switch fluorescence ratio came to 1.01.

For ATGCTGATTG, the switch fluorescence ratio was 1.

CGTGTGGATG: the switch fluorescence ratio turned out to be 1.03.

On to TCCGGCTAAT, for which the switch fluorescence ratio was found to be 1.21.

Turning to GTCATTAAAT, the switch fluorescence ratio was 0.991.

As to CGACTGTAGC, the switch fluorescence ratio was 1.25.

For the sequence GATCAAACAT, the switch fluorescence ratio is 1.01.

CACAGAAGCA: the switch fluorescence ratio is 1.06.

For the sequence CCAACAGGAT, the switch fluorescence ratio amounted to 1.02.

TGAATACACG: the switch fluorescence ratio came to 1.01.

For the sequence TCAAAAACAA, the switch fluorescence ratio was found to be 1.01.

As for TGGGGAGATG, the switch fluorescence ratio was determined as 0.991.

For the sequence TTTGTATGTC, the switch fluorescence ratio amounted to 1.04.

As to TCAGGGGTGA, the switch fluorescence ratio is 0.987.

As to CGCCAATGTG, the switch fluorescence ratio was found to be 1.07.

For the sequence GCCCTCGTAC, the switch fluorescence ratio amounted to 1.14.

For the sequence GTGGTCACAT, the switch fluorescence ratio was found to be 1.01.

Consider ACTAACTAAA, for which the switch fluorescence ratio turned out to be 1.1.

Regarding GACAATGCAC, the switch fluorescence ratio was 1.3.

For the sequence CAGGATAGCG, the switch fluorescence ratio was 0.997.

Take GGGGCAGTGC: the switch fluorescence ratio is 1.17.

ATAATATGCT: the switch fluorescence ratio is 0.981.

As for GCCGTTTATT, the switch fluorescence ratio amounted to 1.01.

For GCATAATTTG, the switch fluorescence ratio is 1.02.

For the sequence GAGACGGACA, the switch fluorescence ratio worked out at 1.2.

In the case of ATTGGAGCGG, the switch fluorescence ratio was found to be 0.925.

In the case of GAGATTTAAC, the switch fluorescence ratio was 1.07.

As to TGGTTATCGC, the switch fluorescence ratio is 1.02.

For CAGTGAGATT, the switch fluorescence ratio came out at 0.977.

For GGTGCTATAT, the switch fluorescence ratio is 1.06.

In the case of CACGCTATGG, the switch fluorescence ratio came out at 1.56.

With ACCGACTAGT, the switch fluorescence ratio is 1.07.

In the case of CGTCCTTGAT, the switch fluorescence ratio came to 1.02.

Take GCCGACTTCT: the switch fluorescence ratio was found to be 1.

In the case of TAAGCGGCCG, the switch fluorescence ratio came to 1.05.

As to CGTACATACT, the switch fluorescence ratio worked out at 1.8.

For the sequence TGATACTGGT, the switch fluorescence ratio worked out at 0.988.

As for GACCTTGTCC, the switch fluorescence ratio came to 1.07.

In the case of AAGTGCGTAA, the switch fluorescence ratio worked out at 0.955.

As to TTTGGCTAGG, the switch fluorescence ratio was determined as 0.973.

For TGCGGCATGA, the switch fluorescence ratio was 1.03.

As for GATGACTTTC, the switch fluorescence ratio stood at 1.05.

CGTAGCTGCG: the switch fluorescence ratio is 0.986.

Take GCTTTATTGA: the switch fluorescence ratio amounted to 0.977.

As to TTCGGACGCC, the switch fluorescence ratio amounted to 1.24.

TATGTTCTCA: the switch fluorescence ratio was determined as 0.99.

For GCTTTTGACC, the switch fluorescence ratio is 1.

On to TGACCAGGGT, for which the switch fluorescence ratio was 1.01.

Turning to GTGTTCAAGT, the switch fluorescence ratio was 0.979.

On to TTTCAGTGAT, for which the switch fluorescence ratio is 1.02.

As for TGACAAGAGC, the switch fluorescence ratio was 1.1.

Consider AATGCGGTGC, for which the switch fluorescence ratio came to 1.02.

On to ATTAATCTCA, for which the switch fluorescence ratio came out at 1.01.

Take TACACATGCC: the switch fluorescence ratio turned out to be 1.05.

As for CCTCTTACCG, the switch fluorescence ratio was determined as 1.07.

In the case of TTGGCTCAGA, the switch fluorescence ratio was 1.03.

As to TGTGAGTCGT, the switch fluorescence ratio came out at 0.948.

CTCACGTTTG: the switch fluorescence ratio is 1.05.

Turning to ATAGGACTTT, the switch fluorescence ratio stood at 0.993.

AGACTCGATC: the switch fluorescence ratio stood at 0.963.

For the sequence GTGTTTATTA, the switch fluorescence ratio was 0.962.

With CCAGGCTGTG, the switch fluorescence ratio was determined as 0.956.

Consider AGCAGTCTTT, for which the switch fluorescence ratio stood at 1.04.

On to TACACCGAGG, for which the switch fluorescence ratio amounted to 1.01.

For ACGCTAGTAT, the switch fluorescence ratio came out at 1.02.

For AGGGAGTGTA, the switch fluorescence ratio came out at 1.03.

In the case of CGAAGCGTCG, the switch fluorescence ratio worked out at 1.04.

Take TTTGTATGCG: the switch fluorescence ratio turned out to be 1.01.

Consider GGGGGATGCA, for which the switch fluorescence ratio was 0.936.

On to GGTTCCATTG, for which the switch fluorescence ratio came to 0.96.

Take TCTGGAGTGC: the switch fluorescence ratio came to 1.33.

In the case of GAGAACTTTT, the switch fluorescence ratio worked out at 0.984.

On to TGGTGAGTAA, for which the switch fluorescence ratio was 0.96.

For the sequence ATTAAACGCT, the switch fluorescence ratio came out at 1.05.

Turning to AGTCATCTCT, the switch fluorescence ratio worked out at 0.98.

For GGTATCCTAG, the switch fluorescence ratio came to 0.926.

For the sequence AAGATCATCG, the switch fluorescence ratio is 1.02.

Take GGCCCGAAGG: the switch fluorescence ratio came out at 0.962.

With TGCATGATAC, the switch fluorescence ratio turned out to be 2.97.

Take TCACTGATGT: the switch fluorescence ratio is 1.01.

These data come from the supplement of paper PMC10126150.
